# ± gives the standard deviation of the averaged measurements. This is one part of the list.
# Tested on: PfAP2-G AP2 domain (GST-tagged)
# Experiment: gcPBM binding intensity (ln(normalized median fluorescence intensity)); higher = stronger DNA binding
# How it was run: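 GST-fused DNA-binding domains of P. falciparum, expressed in E. coli, were applied at about 25 μg on average for 1 h to an Agilent 4 × 180k array of primer-extended double-stranded 36-bp intergenic genomic probes and negative controls. Binding intensity is the highest Masliner-normalised natural-log median intensity across replicate spots of either probe orientation, measured with Alexa488 anti-GST antibody and a 488 nm scan.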
row,Sequence,gcPBM binding intensity (ln)
1,TGAGATAAATGTGGTAGTACATTTTTTTTATATATA [XGTACX_site1918],11.4 ± 0.88
2,CAAAAATTACCCTTGTGTACACATATATTATATGTA [XGTACX_site1124],11.6 ± 0.91
3,ATAAAAAAATCAGACACACACACGTAAACACATACA [CACACA_site5529],10.3 ± 0.18
4,TTAATTATGTTTTGGTGTACAATAAATTGAATAGAT [XGTACX_site3306],11.6 ± 0.99
5,CTACTTAATATTTGTACACACATATTTAACCTACTA [CACACA_site5725],11.3 ± 0.78
6,ATATATATATATATATGTACATAATAATTTTATAAA [XGTACX_site5105],11.3 ± 0.73
7,AATAATAATAGAAACACACACACATTTTTAATAATA [CACACA_site1217],10.12 ± 0.057
8,ATGTTATAATTTAGTGTGCACATATTAAGAGGAACA,10.6 ± 0.38
9,ATATATATTTATATATGTACATATTTTTGTGTATTT [XGTACX_site1183],11.3 ± 0.79
10,TATACTCATAAATACACACACATATATATATATATA [CACACA_site5822],10.1 ± 0.27
11,GGGGGCTTTTATAAAAGTACAAAATGAATAAAAATT [XGTACX_site2393],11.4 ± 0.97
12,TATACATACCCACCCACACACAAAAAAAAAAAAAAA [CACACA_site4632],10.3 ± 0.57
13,TATCTGTAAATGGACACACACATATATATATATATA [CACACA_site5926],10.9 ± 0.6
14,AAAATATAATATAATGCACACATAAAAAAAAAATCA [CACACA_site7922],10.1 ± 0.26
15,TCTTTATTATTCGCCACACACATATATATATATATA [CACACA_site3077],10.2 ± 0.17
16,TTTTAAAAAAAATAAAAAATAAACAATAATAAATAA [CACACA_negctrl_site721],9.8 ± 0.014
17,TATATATATAAAAATACACACATGAATGAATATATA [CACACA_site419],9.86 ± 0.042
18,AAAATATAATATAATGCACACATAAAAAAAAAAAAA [CACACA_site7989],9.89 ± 0.59
19,ATATATGTTCCTTTTACACACATAATCTTTTTTTTA [CACACA_site2661],10.24 ± 0.021

row,Sequence,gcPBM binding intensity (ln)
1,TTTTTAAAAATATACACACACAGATATTATATATAT [CACACA_site786],10.1 ± 0.28
2,ATATTGTGTTATAAATGTACACAATTTCCTTTCATA [XGTACX_site7481],11.3 ± 0.79
3,GTATCAATAAAAAACAGTACATATATAATATATTTA [XGTACX_site1083],10.8 ± 0.57
4,ATATATATATGTATGTATATATATATATATGTTTGA [GTGCAC_negctrl_site561],9.82 ± 0.3
5,AAAAAAAAGGAAATAACACACATGTATATATCTATA [CACACA_site6856],9.72 ± 0.35
6,TTCATATAGAATTGTACACACAAAAACGACATTGTG [CACACA_site7061],11.4 ± 0.86
7,AAAAAATAATATTGTACACACATAAATTCTTTGTCA [CACACA_site5187],11.3 ± 0.79
8,ATGTATGGAAATTTTACACACAAGAGTAGTTTAAAA [CACACA_site1710],9.98 ± 0.13
9,TATGTGTATACAATATGTACATATGTTAACTTGTAT [XGTACX_site872],11.3 ± 0.75
10,TTAAATAAATATAAGTGTACATACACACTTTACAAT [XGTACX_site6348],11.2 ± 0.85
11,GCATATGTTCAGCGTTGTACATAAAAAAAAACATAT [XGTACX_site5974],11.3 ± 0.93
12,GCGTAATCTATTTGCACACTTATTTGTTCTTAAAAA [CACACA_site672],10.2 ± 0.14
13,TTTAATAAAAAAATTAAAAATAAAGAAAAAAAAAAA [CACACA_negctrl_site1464],9.6 ± 0.19
14,AAATATATATAAAACTCACACATTATCTTATAACCA [CACACA_site5268],9.78 ± 0.085
15,TGAGATAACAAAAGTTGTACTTTTTTTTTTTTTTTT [XGTACX_site3004],11.6 ± 0.87
16,TTTTGAAAGTTTTTGTGTCCACATATATTTATATAT [XGTACX_site6563],11.4 ± 0.93
17,GTTTAAAGTTGAACAAGTACACATTTATATAAGGCA [XGTACX_site351],11.5 ± 0.95
18,TTTATTTATTACTAAAGTACTAAATCATATAATTAT [XGTACX_site3654],10.6 ± 0.65
19,TACTTTTTAAAAATGTTTTATATAATAAAAAGATAT [CACACA_negctrl_site678],10 ± 0.2

row,Sequence,gcPBM binding intensity (ln)
1,AAAAAAAATAATATTGTACACACATAAATTCTTTGT [CACACA_site8654],11.2 ± 0.67
2,TTTTATAAATACACACGTACGTGTGCATAACGTTTT [XGTACX_site3199],11 ± 0.56
3,ATTATAAACCAGAATGCATGTAGATGAATCTTTTCT [TGCATGCA_site284],9.73 ± 0.2
4,TAAAAATATAAAACATGTACATATATGCATATATTT [XGTACX_site8093],11.1 ± 0.71
5,ATATCATAAGTAGAAACACACAATTAGATTTTTTCC [CACACA_site2353],9.73 ± 0.15
6,TATAAAAGAAACTATACACACATATTTTAAATATTT [CACACA_site2753],9.815 ± 0.064
7,GTACTTGTATTATGCACACATATAATTAAACATATA [CACACA_site3312],10.6 ± 0.3
8,TAATTGAGCAAATGAGTGCACAGCATAAAGTATAGT [GTGCAC_site9497],10.6 ± 0.22
9,AAATTTAAAATAAGTAGTACATAATATAAATAAATA [XGTACX_site3592],11.6 ± 1
10,TTTTTTTTTTTCAATAGTACTTTCCATTTACATATA [XGTACX_site3889],10.8 ± 0.48
11,TAAGCCTTTCTATTATGTACTTATTAAAACATGTAG [XGTACX_site8022],11.2 ± 0.81
12,CTTATATTAAAACACACACACGCACAAAACAGAAAT [CACACA_site1462],10.6 ± 0.48
13,AAATTTATTTCTGTGTGTCCACAAAAAAAAATCTTT [XGTACX_site691],11.3 ± 0.81
14,TTTTTTTCTCTTTTTATTACAAAAAGGGTTTATATA [TGCATGCA_negctrl_site75],9.96 ± 0.23
15,ATTATATTAATATATATATATATATATATAATAATA [CACACA_negctrl_site437],9.62 ± 0.23
16,TAATATTATATTATATGTACATAACAAATTATATTT [XGTACX_site4296],11.3 ± 0.86
17,ATGAAAAAATTTAAATGTACATTACATATATTTATT [XGTACX_site2524],10.8 ± 0.5
18,AAAAATTACAAAAATGCATGTACTATTCATATTTTT [TGCATGCA_site918],10.8 ± 0.47
19,AAAAAAAATTCCAGTACACACAATAATACTAAAAAT [CACACA_site2801],11.1 ± 0.86

# — the supplement of paper PMC11417369
